According to PubChem BioAssay AID2546 (National Center for Advancing Translational Sciences (NCATS), 2010):
The campaign covered roughly 310,000 compounds. About 11,000 (3.5%) were called active. Inconclusive means that the source gave no clear call. Such entries were picked first, then a sample of the others. Calls come from the whole dose curve; as a rule, active = well fitted inhibition curve with a large enough effect; inconclusive = small, poorly fitted or top-dose-only effect, or effect the other way; inactive = flat fitted curve, though single readings scatter. Potencies of inconclusive entries are left out as doubtful fits.

Experiment: VP16 counterscreen qHTS for inhibitors of ROR gamma transcriptional activity;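 note: Gal4-VP16 expression switched on by copper sulfate through the metallothionein promoter; nearly all actives have a fitted effect of over 50% in size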
Details: Drosophila S2 Gal4-VP16 UAS-luciferase, luminescence, 20 h; series mostly up to 53.6 µM
Potency is the fitted concentration of half-maximal effect; tags give direction and shape of the fitted curve.

SMILES | Potency
COc1ccc(/C=N/NC(=O)c2cccc(Br)c2)cc1CSc1ccccn1 | inconclusive [inhibitor, single point]
O=C(N/N=C/c1cc(Cl)ccc1O)c1cccnc1 | active: 0.708 µM
C=CCN(CC=C)C(=O)COC(=O)c1ccc(Sc2ncn[nH]2)c([N+](=O)[O-])c1 | inactive
COc1ccc(CCC(=O)OCc2csc(CC(=O)Nc3ccccc3C)n2)cc1 | inactive
Nc1ccccc1C(=O)CC(N)C(=O)O (stereo unspecified) | active: 28.2 µM
CCCN1CCC(=O)N(CCOc2ccccc2)CC1 | inconclusive [inhibitor, single point]
Clc1ccc(OCCOCCNCc2ccccc2)cc1Cl | inactive
CC1CCN(S(=O)(=O)c2cccc(C(=O)Nc3nccs3)c2)CC1 | inconclusive [inhibitor, single point]
Cc1cc(OCC(=O)Nc2ccncc2)ccc1[N+](=O)[O-] | inconclusive [inhibitor, single point]
CC(C)(C)c1ccc(Oc2ccc(NC(=O)C3CC=CCC3C(=O)O)cc2)cc1 (stereo unspecified) | inconclusive [inhibitor, single point]
CCN(CC)S(=O)(=O)c1cccc(C(=O)NCC2CCCCC2)c1 | inactive
COC(=O)c1ccc(CN2C(=O)NC3(CCC(C)CC3)C2=O)cc1 (stereo unspecified) | inactive
Cc1ccc(-c2c(CC(=O)O)c(C)nc3sc4c(c23)CCCC4)cc1 | inactive
CCOC(=O)c1[nH]c(CN2CCN(c3ccc(OC)cc3)CC2)c(C(=O)OCC)c1C | inactive
CNc1nc(C)nc(-n2nc(C)cc2C)n1 | inconclusive [inhibitor, single point]
C/C(=N\NC(=O)c1ccoc1C)c1ccc(Br)s1 | active: 11.2 µM
CC(=O)/C(=N\Nc1ccccc1)Sc1nnc(-c2ccccc2)n1-c1ccccc1 | inconclusive [inhibitor, single point]
CCOCCn1c(=NC(=O)CSCC(=O)Nc2cc(C)on2)sc2cc(OC)ccc21 | inactive
COc1ccc(-n2ncc3c(NCc4cccnc4)ncnc32)cc1 | inactive
Cc1ccc(S(=O)(=O)c2nc(S(=O)(=O)c3ccc(C)cc3)c(N3CCN(CCO)CC3)s2)cc1 | inactive
Cc1ccc(Nc2nc(CSc3nnc(-c4ccncc4)n3C)cs2)cc1 | inconclusive [inhibitor, single point]
S=c1nc(C2CCCCC2)[nH][nH]1 | inconclusive [inhibitor, single point]
CN(C)S(=O)(=O)c1ccc(-c2csnn2)s1 | inactive
CC(OC(=O)Cn1[nH]c(=O)c2ccccc2c1=O)C(=O)c1ccccc1 (stereo unspecified) | inactive
Clc1ccccc1CN1CCC(Cc2ccccc2)CC1 | inconclusive [inhibitor, single point]
COc1ccc(S(=O)(=O)Nc2ccc(Cc3ccncc3)cc2)cc1C | active: 22.4 µM

SMILES | Potency
Fc1ccc(CNC(=S)NCc2cccc(Cl)c2)cc1 | inconclusive [activator, single point]
COC(=O)C(Cc1ccc(OC(=O)c2ccc(C)cc2)cc1)N1Cc2ccccc2C1=O (stereo unspecified) | inconclusive [inhibitor, single point]
O=C(/C=C\c1ccccc1)Nc1nccs1 | inconclusive [activator, single point]
Cc1cccc(/C=N/NC(=O)Cc2ccc(Cl)cc2)c1O | active: 1 µM
Cc1cc(N2CCN(c3nc4ccccc4s3)CC2)n2ncnc2n1 | active: 11.2 µM
Cc1cc(C(=O)N/N=C/c2c(C)[nH]c3ccccc23)n[nH]1 | inactive
CCCn1c(C(C)Nc2nc(-c3cccc(Br)c3)cs2)nc2ccccc21 (stereo unspecified) | inconclusive [inhibitor, single point]
CCN1CCN(Cc2ccc(NC(=O)c3cc(NC(=O)c4cc(-c5ccc(OC)cc5)n[nH]4)cc(OC)c3)cc2C(F)(F)F)CC1 | inconclusive [inhibitor, single point]
CC(C)(C)NC(=O)C(c1ccc(O)cc1)N(Cc1ccco1)C(=O)CCC(=O)Nc1ccccn1 (stereo unspecified) | inactive
CCN1CCN(C(=O)c2cc3c(-c4ccc(Cl)cc4)nn(C)c3s2)CC1 | inactive
O=c1c([N+](=O)[O-])cccn1Cc1ccccc1Cl | inconclusive [inhibitor, single point]
O=C(CSc1nc2c(sc3ccccc32)c(=O)n1CCCN1CCCC1)NCc1ccccc1 | inactive
CCOc1ccc(N2C(=O)CC(SCCN)C2=O)cc1 (stereo unspecified) | inconclusive [inhibitor, partial curve, poor fit]
COc1cc(-c2nc3ccc4ccccc4c3c3c2CCC3)ccc1O | inactive
CC1=CC(C)(C)Nc2ccc(Cc3ccc4c(c3)C(C)=CC(C)(C)N4)cc21 | inactive
COc1cccc(C(C)NC(=S)NCc2ccc(F)cc2)c1 (stereo unspecified) | active: 8.91 µM
CSc1nc(-c2ccco2)nn1C(=O)c1ccccc1Cl | inconclusive [inhibitor, single point]
O=C(Nc1nc(-c2ccncc2)cs1)C1c2ccccc2Oc2ccccc21 | inconclusive [inhibitor, single point]
Cc1cccc(N=Nc2c(C)nn(-c3ccccc3)c2N)c1C | inconclusive [inhibitor, full curve, poor fit]
Cc1nc(-c2cc(-c3ccc(Cl)cc3)no2)cs1 | inconclusive [inhibitor, full curve, poor fit]
Cc1ccc(NC(=O)CSc2nc3ccccc3c3nc4ccccc4n23)cc1 | inactive
CCC(C)c1ccc(C(CC)NC(=O)C2CCCO2)cc1 (stereo unspecified) | inconclusive [inhibitor, single point]
COc1cccc(NC(=O)Nc2nnc(Cc3ccccc3)s2)c1 | inactive
CCSc1nsc(NC(=O)Nc2cccc(F)c2)n1 | inconclusive [inhibitor, single point]
Cc1ccc(-c2nnc(SCC#CCOC(=O)c3ccco3)o2)cc1 | inconclusive [inhibitor, single point]
